To fix the notation:
B1: P-0425 (IL-2 L19D Fc fusion protein) (Fc fusion)
chain: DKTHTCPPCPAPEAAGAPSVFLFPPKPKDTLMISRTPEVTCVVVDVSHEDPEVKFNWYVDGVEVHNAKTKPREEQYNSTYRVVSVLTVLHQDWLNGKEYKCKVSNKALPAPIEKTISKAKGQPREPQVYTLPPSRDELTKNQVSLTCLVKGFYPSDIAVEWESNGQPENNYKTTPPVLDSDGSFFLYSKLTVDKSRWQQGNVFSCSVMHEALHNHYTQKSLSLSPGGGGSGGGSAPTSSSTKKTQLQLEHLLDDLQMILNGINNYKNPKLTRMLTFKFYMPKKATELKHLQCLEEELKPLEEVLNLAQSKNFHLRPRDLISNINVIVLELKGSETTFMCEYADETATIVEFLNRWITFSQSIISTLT
B2: P-0531 (IL-2 S125I Fc fusion protein; S125I equivalent of wild-type IL-2 Fc fusion protein) (Fc fusion)
chain: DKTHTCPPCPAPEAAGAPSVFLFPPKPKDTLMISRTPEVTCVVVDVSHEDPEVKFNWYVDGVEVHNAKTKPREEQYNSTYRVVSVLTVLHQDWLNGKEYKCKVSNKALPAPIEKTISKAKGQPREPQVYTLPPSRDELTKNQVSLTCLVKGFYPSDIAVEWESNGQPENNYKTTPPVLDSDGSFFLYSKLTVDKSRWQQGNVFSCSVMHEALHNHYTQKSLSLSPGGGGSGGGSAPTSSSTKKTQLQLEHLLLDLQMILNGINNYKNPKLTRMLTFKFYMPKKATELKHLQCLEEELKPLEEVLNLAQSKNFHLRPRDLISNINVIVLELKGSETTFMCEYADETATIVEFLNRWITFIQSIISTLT
notes: also called developability-improved wild-type IL-2 fusion protein
B3: P-0511 (IL-2 L19H/S125I/Q126E Fc fusion protein) (Fc fusion)
chain: [human IgG1 Fc with L234A L235A G237A (EU numbers) skipped]GGGSGGGSAPTSSSTKKTQLQLEHLLHDLQMILNGINNYKNPKLTRMLTFKFYMPKKATELKHLQCLEEELKPLEEVLNLAQSKNFHLRPRDLISNINVIVLELKGSETTFMCEYADETATIVEFLNRWITFIESIISTLT
B4: P-0492 (IL-2 L19D/S125I Fc fusion protein) (Fc fusion)
chain: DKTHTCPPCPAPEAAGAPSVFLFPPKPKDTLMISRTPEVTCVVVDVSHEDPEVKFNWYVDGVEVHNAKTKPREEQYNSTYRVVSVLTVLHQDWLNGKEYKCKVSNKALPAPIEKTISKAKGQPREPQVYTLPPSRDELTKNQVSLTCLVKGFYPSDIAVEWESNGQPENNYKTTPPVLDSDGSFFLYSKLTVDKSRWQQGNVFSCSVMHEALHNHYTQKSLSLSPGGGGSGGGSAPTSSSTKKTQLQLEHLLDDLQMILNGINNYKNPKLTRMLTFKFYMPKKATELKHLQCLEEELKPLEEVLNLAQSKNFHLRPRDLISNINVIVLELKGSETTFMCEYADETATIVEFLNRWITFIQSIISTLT
B5: P-0447 (IL-2 L19H/Q126E Fc fusion protein) (Fc fusion)
chain: [human IgG1 Fc with L234A L235A G237A (EU numbers) skipped]GGGSGGGSAPTSSSTKKTQLQLEHLLHDLQMILNGINNYKNPKLTRMLTFKFYMPKKATELKHLQCLEEELKPLEEVLNLAQSKNFHLRPRDLISNINVIVLELKGSETTFMCEYADETATIVEFLNRWITFSESIISTLT
B6: P-0480 (IL-2 L19H/Q126K Fc fusion protein) (Fc fusion)
chain: [human IgG1 Fc with L234A L235A G237A (EU numbers) skipped]GGGSGGGSAPTSSSTKKTQLQLEHLLHDLQMILNGINNYKNPKLTRMLTFKFYMPKKATELKHLQCLEEELKPLEEVLNLAQSKNFHLRPRDLISNINVIVLELKGSETTFMCEYADETATIVEFLNRWITFSKSIISTLT
B7: P-0495 (IL-2 L19Y/S125I/Q126E Fc fusion protein) (Fc fusion)
chain: [human IgG1 Fc with L234A L235A G237A (EU numbers) skipped]GGGSGGGSAPTSSSTKKTQLQLEHLLYDLQMILNGINNYKNPKLTRMLTFKFYMPKKATELKHLQCLEEELKPLEEVLNLAQSKNFHLRPRDLISNINVIVLELKGSETTFMCEYADETATIVEFLNRWITFIESIISTLT
B8: P-0512 (IL-2 L19H/S125I/Q126K Fc fusion protein) (Fc fusion)
chain: [human IgG1 Fc with L234A L235A G237A (EU numbers) skipped]GGGSGGGSAPTSSSTKKTQLQLEHLLHDLQMILNGINNYKNPKLTRMLTFKFYMPKKATELKHLQCLEEELKPLEEVLNLAQSKNFHLRPRDLISNINVIVLELKGSETTFMCEYADETATIVEFLNRWITFIKSIISTLT
B9: P-0419 (IL-2 L19Y/Q126E Fc fusion protein) (Fc fusion)
chain: [human IgG1 Fc with L234A L235A G237A (EU numbers) skipped]GGGSGGGSAPTSSSTKKTQLQLEHLLYDLQMILNGINNYKNPKLTRMLTFKFYMPKKATELKHLQCLEEELKPLEEVLNLAQSKNFHLRPRDLISNINVIVLELKGSETTFMCEYADETATIVEFLNRWITFSESIISTLT
B10: P-0424 (IL-2 L19H Fc fusion protein) (Fc fusion)
chain: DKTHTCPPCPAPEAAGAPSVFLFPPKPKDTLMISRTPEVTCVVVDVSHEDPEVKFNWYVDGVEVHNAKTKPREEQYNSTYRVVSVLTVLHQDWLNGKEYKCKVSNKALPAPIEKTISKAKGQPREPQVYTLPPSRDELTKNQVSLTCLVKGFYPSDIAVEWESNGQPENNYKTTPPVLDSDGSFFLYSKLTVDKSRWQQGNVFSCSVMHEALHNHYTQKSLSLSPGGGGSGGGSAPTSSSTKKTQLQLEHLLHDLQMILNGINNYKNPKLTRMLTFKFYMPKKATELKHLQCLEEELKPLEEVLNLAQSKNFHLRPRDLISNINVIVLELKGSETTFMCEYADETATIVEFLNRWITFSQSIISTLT
B11: P-0372 (IL-2 L19Y Fc fusion protein) (Fc fusion)
chain: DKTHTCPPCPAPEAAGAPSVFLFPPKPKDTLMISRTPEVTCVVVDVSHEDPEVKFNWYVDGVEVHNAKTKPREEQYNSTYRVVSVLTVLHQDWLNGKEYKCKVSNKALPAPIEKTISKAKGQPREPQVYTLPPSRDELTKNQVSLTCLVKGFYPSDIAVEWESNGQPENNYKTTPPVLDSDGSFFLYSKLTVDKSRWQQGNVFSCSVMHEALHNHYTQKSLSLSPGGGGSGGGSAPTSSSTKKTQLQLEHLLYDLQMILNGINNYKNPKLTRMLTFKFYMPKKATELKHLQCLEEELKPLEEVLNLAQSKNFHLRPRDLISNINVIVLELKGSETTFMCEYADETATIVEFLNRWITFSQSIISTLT
B12: P-0364 (IL-2 D20E Fc fusion protein) (Fc fusion)
chain: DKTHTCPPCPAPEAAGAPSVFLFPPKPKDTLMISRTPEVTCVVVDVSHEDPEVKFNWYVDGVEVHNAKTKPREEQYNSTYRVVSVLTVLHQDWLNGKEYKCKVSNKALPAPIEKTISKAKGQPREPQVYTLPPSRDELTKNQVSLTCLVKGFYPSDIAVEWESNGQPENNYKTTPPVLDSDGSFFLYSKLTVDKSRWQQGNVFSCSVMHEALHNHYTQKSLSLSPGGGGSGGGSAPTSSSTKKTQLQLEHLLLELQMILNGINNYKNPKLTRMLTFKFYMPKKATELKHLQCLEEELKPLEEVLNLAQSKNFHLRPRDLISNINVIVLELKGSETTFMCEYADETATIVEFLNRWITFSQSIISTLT
B13: P-0491 (IL-2 L19H/S125I Fc fusion protein) (Fc fusion)
chain: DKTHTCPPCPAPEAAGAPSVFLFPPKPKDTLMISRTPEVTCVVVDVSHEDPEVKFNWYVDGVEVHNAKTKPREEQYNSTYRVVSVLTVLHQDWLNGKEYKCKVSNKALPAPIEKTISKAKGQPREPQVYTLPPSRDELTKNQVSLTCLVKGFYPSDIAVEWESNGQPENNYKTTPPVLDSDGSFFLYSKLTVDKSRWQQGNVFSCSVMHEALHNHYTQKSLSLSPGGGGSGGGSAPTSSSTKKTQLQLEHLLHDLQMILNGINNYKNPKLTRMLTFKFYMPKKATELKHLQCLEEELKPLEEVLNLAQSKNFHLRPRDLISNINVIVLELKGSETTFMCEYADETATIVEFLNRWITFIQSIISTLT
B14: P-0493 (IL-2 D20E/S125I Fc fusion protein) (Fc fusion)
chain: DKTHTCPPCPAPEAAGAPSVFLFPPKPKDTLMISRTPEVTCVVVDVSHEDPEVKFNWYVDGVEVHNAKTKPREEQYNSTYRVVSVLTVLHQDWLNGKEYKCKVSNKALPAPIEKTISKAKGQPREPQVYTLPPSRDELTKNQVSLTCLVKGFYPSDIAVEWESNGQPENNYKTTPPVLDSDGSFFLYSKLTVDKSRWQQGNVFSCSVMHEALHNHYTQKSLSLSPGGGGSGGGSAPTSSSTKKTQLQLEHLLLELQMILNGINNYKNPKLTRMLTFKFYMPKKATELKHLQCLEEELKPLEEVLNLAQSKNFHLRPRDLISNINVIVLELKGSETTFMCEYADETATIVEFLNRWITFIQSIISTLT
B15: P-0471 (IL-2 L19Y/S125I Fc fusion protein) (Fc fusion)
chain: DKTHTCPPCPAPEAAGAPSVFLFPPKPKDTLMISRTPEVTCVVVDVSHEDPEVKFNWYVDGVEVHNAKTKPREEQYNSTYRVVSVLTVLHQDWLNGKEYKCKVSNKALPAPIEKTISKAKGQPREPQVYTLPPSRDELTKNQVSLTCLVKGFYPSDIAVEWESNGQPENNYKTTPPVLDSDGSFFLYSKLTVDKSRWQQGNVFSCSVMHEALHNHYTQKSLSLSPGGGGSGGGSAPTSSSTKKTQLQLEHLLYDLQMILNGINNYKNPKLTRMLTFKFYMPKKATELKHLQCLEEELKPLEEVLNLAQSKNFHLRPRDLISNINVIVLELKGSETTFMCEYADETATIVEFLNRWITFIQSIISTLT
B16: P-0250 (wild type IL-2 Fc fusion protein) (Fc fusion)
chain: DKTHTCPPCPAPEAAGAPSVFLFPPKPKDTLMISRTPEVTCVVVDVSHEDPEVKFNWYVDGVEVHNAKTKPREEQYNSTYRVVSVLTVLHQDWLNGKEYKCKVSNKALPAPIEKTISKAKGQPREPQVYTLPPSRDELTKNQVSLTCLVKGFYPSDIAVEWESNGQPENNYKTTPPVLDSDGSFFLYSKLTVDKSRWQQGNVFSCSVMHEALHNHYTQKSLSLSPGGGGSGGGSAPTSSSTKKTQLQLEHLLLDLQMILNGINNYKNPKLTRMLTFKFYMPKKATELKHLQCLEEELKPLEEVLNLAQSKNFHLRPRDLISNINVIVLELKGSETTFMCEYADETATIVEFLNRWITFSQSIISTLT
B17: P-0860 (IL-2 L19D/S125I/Q126E Fc fusion protein) (Fc fusion)
chain: [human IgG1 Fc with L234A L235A G237A (EU numbers) skipped]GGGSGGGSAPTSSSTKKTQLQLEHLLDDLQMILNGINNYKNPKLTRMLTFKFYMPKKATELKHLQCLEEELKPLEEVLNLAQSKNFHLRPRDLISNINVIVLELKGSETTFMCEYADETATIVEFLNRWITFIESIISTLT
B18: P-0864 (P-0511 with a 9 amino acid N-terminal deletion of IL-2; Fc fusion protein) (Fc fusion)
chain: [human IgG1 Fc with L234A L235A G237A (EU numbers) skipped]GGGSGGGSTQLQLEHLLHDLQMILNGINNYKNPKLTRMLTFKFYMPKKATELKHLQCLEEELKPLEEVLNLAQSKNFHLRPRDLISNINVIVLELKGSETTFMCEYADETATIVEFLNRWITFIESIISTLT

One assay concerns the target T1, high affinity trimeric IL-2 receptor (IL-2Rαβγ) on human CD4+ Treg cells (CD4+/Foxp3+/CD25high) of PBMC (human, UniProt P01589 22-272; P14784 27-551; P31785 23-369).
T1 sequence (looked up) 1: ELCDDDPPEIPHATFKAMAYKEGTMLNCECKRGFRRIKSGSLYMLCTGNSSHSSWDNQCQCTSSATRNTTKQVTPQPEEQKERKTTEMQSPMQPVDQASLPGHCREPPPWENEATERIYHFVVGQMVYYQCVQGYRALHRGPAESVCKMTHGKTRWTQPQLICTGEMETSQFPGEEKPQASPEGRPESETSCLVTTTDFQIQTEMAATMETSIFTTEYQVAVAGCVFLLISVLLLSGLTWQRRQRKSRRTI
T1 sequence (looked up) 2: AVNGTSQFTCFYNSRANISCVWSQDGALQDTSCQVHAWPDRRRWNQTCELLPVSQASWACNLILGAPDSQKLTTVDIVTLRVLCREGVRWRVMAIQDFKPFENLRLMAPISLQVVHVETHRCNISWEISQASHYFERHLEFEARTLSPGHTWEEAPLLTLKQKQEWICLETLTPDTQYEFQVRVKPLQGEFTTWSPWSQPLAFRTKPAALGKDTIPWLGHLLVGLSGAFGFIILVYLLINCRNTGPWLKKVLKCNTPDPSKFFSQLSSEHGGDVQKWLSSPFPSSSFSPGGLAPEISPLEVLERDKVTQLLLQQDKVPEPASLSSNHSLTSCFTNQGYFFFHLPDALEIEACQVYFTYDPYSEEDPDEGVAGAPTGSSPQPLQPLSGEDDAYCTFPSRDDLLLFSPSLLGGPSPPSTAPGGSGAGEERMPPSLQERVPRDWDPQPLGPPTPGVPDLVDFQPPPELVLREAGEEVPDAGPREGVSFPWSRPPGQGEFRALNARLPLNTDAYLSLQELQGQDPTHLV
T1 sequence (looked up) 3: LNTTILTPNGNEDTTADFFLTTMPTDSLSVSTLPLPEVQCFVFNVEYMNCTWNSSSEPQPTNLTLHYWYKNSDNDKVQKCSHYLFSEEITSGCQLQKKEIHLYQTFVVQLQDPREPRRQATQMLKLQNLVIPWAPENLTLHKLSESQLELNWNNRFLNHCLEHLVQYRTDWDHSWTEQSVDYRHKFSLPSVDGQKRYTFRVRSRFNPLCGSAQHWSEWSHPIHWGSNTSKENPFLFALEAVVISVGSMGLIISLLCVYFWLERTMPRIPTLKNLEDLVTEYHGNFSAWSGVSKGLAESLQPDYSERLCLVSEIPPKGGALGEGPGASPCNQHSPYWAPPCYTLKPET
The assay is described as follows: cell-based or functional assay.
As for B1, the “Treg EC50 (pM), STAT5 phosphorylation” value was 1 pM.

With B2, the “Treg EC50 (pM), STAT5 phosphorylation” value worked out at 0.012 pM.

As for B3, the “Treg EC50 (pM), STAT5 phosphorylation” value is 0.76 pM.

Regarding B4, the “Treg EC50 (pM), STAT5 phosphorylation” value is around 0.1 pM.

For the molecule B5, the “Treg EC50 (pM), STAT5 phosphorylation” value came out at 1.71 pM.

For B6, the “Treg EC50 (pM), STAT5 phosphorylation” value stood at 0.24 pM.

Consider B7, for which the “Treg EC50 (pM), STAT5 phosphorylation” value was around 0.33 pM.

As to B8, the “Treg EC50 (pM), STAT5 phosphorylation” value is 0.35 pM.

For B9, the “Treg EC50 (pM), STAT5 phosphorylation” value came out at 0.56 pM.

For B10, the “Treg EC50 (pM), STAT5 phosphorylation” value came to 0.026 pM.

Take B11: the “Treg EC50 (pM), STAT5 phosphorylation” value came to 0.05 pM.

On to B12, for which the “Treg EC50 (pM), STAT5 phosphorylation” value amounted to 3.61 pM.

As for B13, the “Treg EC50 (pM), STAT5 phosphorylation” value turned out to be 0.029 pM.

As for B14, the “Treg EC50 (pM), STAT5 phosphorylation” value was determined as 0.08 pM.

In the case of B15, the “Treg EC50 (pM), STAT5 phosphorylation” value is 0.09 pM.

Take B16: the “Treg EC50 (pM), STAT5 phosphorylation” value amounted to 0.049 pM.

The next assay deals with T1, high affinity trimeric IL-2 receptor …. The assay is described as follows: cell-based or functional assay. This is another data set of the same source.
On to B3, for which the “Treg cell responsiveness (STAT5 phosphorylation EC50)” value came out at 0.00074 nM.

For the molecule B17, the “Treg cell responsiveness (STAT5 phosphorylation EC50)” value was determined as 6.23 nM and the “fold reduction in Treg cell responsiveness compared to P-0511” value amounted to 8500 fold.

Regarding B18, the “STAT5 phosphorylation in Treg cells (EC50)” value came out at 0.018 nM and the “fold activity impairment compared to P-0511 (STAT5 phosphorylation in Treg cells)” value was found to be 25 fold.
